Test results: PubChem BioAssay AID485294 (National Center for Advancing Translational Sciences (NCATS), 2010)
Values joined by “and” are separate entries in the source; they are usually repeats but may differ in a detail not shown here. Equal entries are not always repeated. Screen size: about 370,000 compounds; about 150 (0.041%) were called active. Inconclusive means that the source gave no clear call. Such entries were picked first, then a sample of the others. Calls follow the shape of the dose curve; as a rule, active = well fitted inhibition curve with a large enough effect; inconclusive = small, poorly fitted or top-dose-only effect; inactive = flat fitted curve, though single readings scatter. Where the call is inconclusive, the potency comes from a doubtful curve fit.

Target: Beta-lactamase (Escherichia coli (strain K12)) (UniProt P00811)
Chain of UniProt P00811 (P00811 whole entry, looked up): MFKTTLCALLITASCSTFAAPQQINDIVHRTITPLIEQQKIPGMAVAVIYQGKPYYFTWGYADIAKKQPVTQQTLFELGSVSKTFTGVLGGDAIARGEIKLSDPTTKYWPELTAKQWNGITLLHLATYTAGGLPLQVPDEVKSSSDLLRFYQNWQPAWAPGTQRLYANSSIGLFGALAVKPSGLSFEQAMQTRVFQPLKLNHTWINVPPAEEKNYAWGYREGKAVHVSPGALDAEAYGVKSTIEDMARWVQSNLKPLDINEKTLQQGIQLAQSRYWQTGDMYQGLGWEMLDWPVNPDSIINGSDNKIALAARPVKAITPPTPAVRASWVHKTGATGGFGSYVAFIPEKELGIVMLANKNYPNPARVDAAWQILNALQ
Assay: qHTS Inhibitors of AmpC Beta-Lactamase (assay with detergent); also: nearly all actives have a fitted effect of over 25% in size;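 as to activity change, negative = inhibition: 0% = no-compound wells and -100% = no-enzyme wells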
Conditions: AmpC hydrolysis of nitrocefin, absorbance 480 nm, 0.01% Triton; activity change, negative = inhibition: at 114 µM (top of the series)
Outline: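 20 mM phosphate pH 7.0 + 0.01% (detergent screen) or 0.0001% Triton X-100; 5.3 nM AmpC reagent; cpd preinc 15 min RT; nitrocefin (800 uM stock) to start; A480 q20 s × 4 min; Activity was normalised to no-enzyme and no-compound control wells.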
Potency is read from the fitted curve at half-maximal effect; tags tell the direction and shape of the fitted curve.

SMILES	activity change, negative = inhibition	Potency
Cc1ccc(-n2nc3c(c2NC(=O)c2ccco2)CS(=O)(=O)C3)cc1	inactive: -2.41%	–
Cc1ccc(C2=NS(=O)(=O)N(C)C(C(=O)Nc3ccc(F)cc3F)=C2)cc1	–	inconclusive: 44.7 µM [inhibitor, partial curve, poor fit]
CCc1ccc(NC(=O)NCc2ccc3c(c2)OCO3)cc1	–	inconclusive: 2 µM [inhibitor, full curve]
COc1ccc(NC(=O)CSc2nnnn2C2CC2)cc1S(=O)(=O)N1CCOCC1	inactive: -2.18%	–
CCOc1cc(/C=N/NC(=O)C(=O)NC)cc(Br)c1O	–	inconclusive: 56.2 µM [inhibitor, partial curve, poor fit]
Cc1ccc2[nH]c(=O)cc(C(=O)OCC(=O)c3ccccc3)c2c1	–	inconclusive: 89.1 µM [inhibitor, single point]
COC(=O)CN(c1ccc(C)cc1)S(=O)(=O)c1c(C)[nH]c(=O)[nH]c1=O	–	inconclusive: 0.708 µM [inhibitor, full curve, poor fit]
O=C(Nc1ccccc1)c1ccc(S(=O)(=O)NCC2CCCO2)cc1 (stereo not drawn)	–	inconclusive: 3.16 µM [inhibitor, single point]
COc1ccc(S(=O)(=O)Nc2ccc(CC#N)cc2)cc1	–	inconclusive: 0.631 µM [inhibitor, full curve]
C=CCn1c(SCc2ccc(C(=O)OC)cc2)nnc1-c1sc(N)nc1C	–	inconclusive: 89.1 µM [inhibitor, partial curve, poor fit]
Fc1ccc(Nc2ncnc3onc(-c4ccc(Cl)cc4)c23)cc1Cl	inactive: 0.906%	–
O=C(C1CCCN(S(=O)(=O)c2ccc(Br)s2)C1)N1CCN(c2ccccc2F)CC1 (stereo not drawn)	inactive: 10.6%	–
O=C(Nc1ccccc1Cl)N1CCN(c2ncccn2)CC1	–	inconclusive: 15.8 µM [inhibitor, full curve, poor fit]
O=C(NCC1CCCN1S(=O)(=O)c1ccccc1)c1cccc(Cl)c1 (stereo not drawn)	–	inconclusive: 89.1 µM [inhibitor, single point]
C=CCn1c(COc2ccc(Cl)cc2)nnc1SCc1ccc(C#N)cc1	–	inconclusive: 3.55 µM [inhibitor, full curve, poor fit]
C=CCNC(=O)/C(=C/c1cccc([N+](=O)[O-])c1)NC(=O)c1ccccc1	–	inconclusive: 70.8 µM [inhibitor, partial curve, poor fit]
COc1ccc(OC)c(N=Cc2c(O)n(Cc3ccccc3)c(=S)[nH]c2=O)c1	inactive: -4.09%	–
CCN(CC)CCn1c(NCc2cccc(OC)c2OC)nc2ccccc21	–	inconclusive: 1.26 µM [inhibitor, full curve, poor fit]
Cc1ccc(-c2nc3ncccc3o2)cc1NC(=O)CC(C)C	–	inconclusive: 70.8 µM [inhibitor, partial curve, poor fit]
Cn1ccnc1SC(C(=O)O)c1ccccc1 (stereo not drawn)	–	inconclusive: 10 µM [inhibitor, partial curve]
CCN(C1CCCCC1)S(=O)(=O)c1ccc(S(=O)(=O)NCc2ccncc2)cc1	–	inconclusive: 44.7 µM [inhibitor, partial curve, poor fit]
CCN1CCN(S(=O)(=O)c2ccc(Cl)c(C(=O)Nc3nnc(CC(C)C)s3)c2)CC1	–	inconclusive: 5.01 µM [inhibitor, full curve, poor fit]

SMILES	activity change, negative = inhibition	Potency
CC(=O)Oc1ccc(OC(C)=O)c2c1CC(C)=C(C)C2	inactive: 0.676%	–
CCOc1cc(/C=C2/C(=N)N3C=CSC3=NC2=O)ccc1OCCCOc1ccccc1C	–	inconclusive: 3.98 µM [inhibitor, full curve, poor fit]
O=C(O)c1cc(N/N=C/C=C/c2ccccc2[N+](=O)[O-])ccc1Cl	inactive: -3.91%	–
COc1ccc(CNC(=O)/C=C/c2ccc(S(=O)(=O)NCc3ccco3)cc2)cc1OC	inactive: -8.55%	–
CCN(CCNC(=O)Nc1ccc(Cl)cc1)c1ccccc1	inactive: 2.11%	–
COc1ccc(N=C2NN=C(c3c(C)[nH]c4ccccc34)CS2)cc1	–	inconclusive: 4.47 µM [inhibitor, full curve, poor fit]
S=C(Nc1ccc(Cl)cc1)c1sc(N2CCCCC2)nc1N1CCOCC1	–	inconclusive: 1.12 µM [inhibitor, full curve]
O=C(O)CS(=O)(=O)c1ccc(Oc2ccc(S(=O)(=O)CC(=O)O)cc2)cc1	–	inconclusive: 39.8 µM [inhibitor, full curve, poor fit]
O=C(NCCc1ccccc1)c1n[nH]c(=O)c2ccccc12	inactive: -1.53%	–
CSc1ccc(CCNC(=O)CN2C(=O)c3cccnc3Oc3ccc(C)cc32)cc1	–	inactive and inconclusive: 100 µM [inhibitor, partial curve, poor fit]
CCc1cccc2c(C(=O)COC(=O)/C=C/c3ccccc3OC)c[nH]c12	inactive: -3.27%	–
Cc1ccc(/C=C/C(=O)NCCCc2ccccc2)cc1	–	inconclusive: 100 µM [inhibitor, single point]
OC1(c2ccc(F)cc2)CC2CCC(C1)N2Cc1nnnn1C1CCCCC1 (stereo not drawn)	–	inconclusive: 89.1 µM [inhibitor, partial curve, poor fit]
O=C(CNC(=S)N(Cc1ccccc1)Cc1cccnc1)NC1CCCC1	–	inconclusive: 11.2 µM [inhibitor, partial curve]
O=C(Nc1ccc2nc(-c3cccs3)[nH]c2c1)c1cccs1	–	inconclusive: 1.26 µM [inhibitor, full curve, poor fit]
CC(=O)c1cccc(NC(=S)Nc2ccn(Cc3cccc4ccccc34)n2)c1	inactive: 3.11%	–
O=C(O)c1ccc(/C=C/c2ccc3cccc(O)c3n2)cc1	inactive: -5.84%	–
O=S(=O)(NCc1nc(-c2ccccc2)no1)c1ccc(F)cc1	inactive: -3.06%	–
CCC(=O)c1cc(F)c(N2CCN(S(=O)(=O)c3ccc(C)cc3)CC2)cc1C	–	inconclusive: 1.58 µM [inhibitor, full curve, poor fit]
COc1ccc(Cl)cc1N1C(=O)/C(=C\c2sccc2C)N=C1SCC(=O)NC1CC1	–	inconclusive: 14.1 µM [inhibitor, full curve, poor fit]
COc1cc(C2C(C(=O)Nc3ccc(C)cc3C)=C(C)Nc3nc4ccccc4n32)cc(OC)c1OC (stereo not drawn)	inactive: 20.6%	–
